Test results published in paper PMC6919601, “Identification of Plasmodium dipeptidyl aminopeptidase allosteric inhibitors by high throughput screening” (PLoS ONE, 2019).
“And” between values parts separate entries of the source, which are not always exact repeats. Equal entries are not always repeated. About 230 (0.21%) of roughly 110,000 compounds showed an effect of 50% or more. The list shows a part of the results.

Biological target: DPAP1 (Plasmodium falciparum, UniProt Q8IIJ9)
Assay: primary screen, percent inhibition; read by cleavage of a fluorogenic dipeptide substrate; higher = more effect of the substance
Set-up: species or system P. falciparum D10 trophozoite lysates; single well
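Also: 30 min substrate incubation versus DMSO and 10 µM JCP410 controls.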

Sequence of DPAP1 (Q8IIJ9 whole entry, looked up): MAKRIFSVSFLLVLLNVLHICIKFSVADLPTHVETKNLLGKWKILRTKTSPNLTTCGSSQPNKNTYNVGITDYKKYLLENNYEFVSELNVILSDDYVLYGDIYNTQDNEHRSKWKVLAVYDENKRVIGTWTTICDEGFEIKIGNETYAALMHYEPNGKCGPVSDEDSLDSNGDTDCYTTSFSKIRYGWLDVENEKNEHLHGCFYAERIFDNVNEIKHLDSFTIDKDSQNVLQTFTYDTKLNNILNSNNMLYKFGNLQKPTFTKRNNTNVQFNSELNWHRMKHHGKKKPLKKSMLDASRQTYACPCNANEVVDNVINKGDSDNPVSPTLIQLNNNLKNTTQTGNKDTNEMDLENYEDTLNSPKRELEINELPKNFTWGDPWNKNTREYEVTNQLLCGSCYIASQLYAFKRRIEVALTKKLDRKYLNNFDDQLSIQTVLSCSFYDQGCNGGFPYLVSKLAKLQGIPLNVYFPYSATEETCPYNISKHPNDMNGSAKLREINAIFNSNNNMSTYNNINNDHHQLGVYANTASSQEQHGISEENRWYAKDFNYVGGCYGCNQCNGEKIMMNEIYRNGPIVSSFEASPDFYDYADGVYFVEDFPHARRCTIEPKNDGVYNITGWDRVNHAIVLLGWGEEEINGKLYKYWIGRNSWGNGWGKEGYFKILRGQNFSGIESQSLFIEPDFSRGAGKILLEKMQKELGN

| Compound | % Inhibition @ 10 uM |
| --- | --- |
| CCN(CC)CCNC(=O)c1cc2c(s1)-c1ccc(Cl)cc1SC2 | -0.72% |
| Cc1ccc(OCC(=O)NC2CCCCC2NC(=O)COc2ccc(C)cc2)cc1 (stereo not shown) | -0.473% |
| COCCN1C=C(C(=O)OC)C(c2sccc2C)C(C(=O)OC)=C1 | -6.44% |
| O=C(CCCOc1ccccc1)N1CCCC1 | 0.475% |
| Cc1cc(C)c2c(c1)N[C@H](c1cccs1)[C@@H]1CCO[C@H]21 | -6.05% |
| Cc1ccc(/C=C/c2n[nH]c(-c3ccccc3O)n2)o1 | 0.628% |
| COc1ccc(CN2CCc3ccccc3C2)c(O)c1 | 2.1% |
| COc1cc(C(=O)NCC(C)C)cc(OC)c1OC | -6.39% |
| O=C(c1cc2c(Cl)nc3ccccc3c2s1)N1CCN(c2ncccn2)CC1 | 8.03% |
| Cc1cccc(N(CC(=O)Nc2ccc3c(c2)OCO3)S(=O)(=O)c2ccccc2)c1 | 2.37% |
| COc1ccc(NC(=O)c2ccccc2NC(=O)CN2C(=O)c3ccccc3C2=O)cc1 | 0.812% |
| O=S(=O)(c1ccc(Sc2ccc(S(=O)(=O)N3CCCCC3)cc2)cc1)N1CCCCC1 | 5.61% |
| CCN1CCCC1CNC(=O)Cn1cccc1C(=O)c1ccccc1 (stereo not shown) | -0.522% |
| COc1ccccc1C/N=c1/c(-c2ccccc2)c(O)c1=O | -3.77% |
| COc1ccc(N2C(=O)CSC2c2ccc(C)cc2)cc1 (stereo not shown) | 2.92% |
| COC(=O)c1cc(-c2ccc(F)cc2)n(-c2ccccc2)n1 | 6.38% |
| Cc1cc(C)n2nc(CCC(=O)O)nc2n1 | -4.69% |
| Cc1ccccc1NCCNc1ccccc1C | 1.7% |
| O=C(NCCc1c[nH]c2ccccc12)c1ccc(Cl)cc1 | 0.00178% |
| Cc1csc(NC(=O)CCCC(=O)c2ccccc2)n1 | 0.238% |
| CCCCCOc1ccc(C2C(C#N)=C(N)OC3=C2C(=O)CC(C)(C)C3)cc1OC (stereo not shown) | -2.68% |
| Cc1ccc(-c2nc(CSCC(=O)NC(C)c3ccccc3)c(C)o2)cc1 (stereo not shown) | -1.05% |
| Cc1nc2ccc(S(=O)(=O)C(F)(F)F)cc2s1 | 3.98% |

| Compound | % Inhibition @ 10 uM |
| --- | --- |
| CCc1ccc(-c2cn3c(n2)sc2cc(C(=O)N4CCC5(CC4)OCCO5)ccc23)cc1 | 33.8% |
| CC(C)c1ccc(NS(=O)(=O)c2ccc(Br)s2)cc1 | 2.95% |
| CCOC(=O)c1c(C)nc2nn3c(N)c(C#N)nnc3c2c1-c1ccc(C)cc1 | 5.13% |
| COc1ccc(CN2CCN(c3nn4nnnc4c4ccccc34)CC2)c(OC)c1OC | -6.66% |
| N#Cc1c(N)nc2c(c1-c1ccco1)CCCCC2 | -5.61% |
| O=S(=O)(c1ccccc1)n1cccn1 | -6.25% |
| CC1CCCCN1S(=O)(=O)c1ccccc1[N+](=O)[O-] (stereo not shown) | 2.58% |
| CC(Oc1ccccc1)C(=O)Nc1c(C(=O)NC(C)(C)C)oc2ccccc12 (stereo not shown) | 0.0065% |
| C=C(C)c1cccc(C(C)(C)NC(=O)NCc2ccc(Cl)cc2)c1 | -0.386% |
| COC(=O)c1cc(OC)c(S(=O)(=O)NCc2ccccc2)cc1OC | -2.28% |
| O=C(O)C1CC=CCC1C(=O)Nc1cc(Cl)ccc1Cl (stereo not shown) | -0.305% |
| COc1ccccc1N1CCN(C(=O)C2CC2)CC1 | -1.36% |
| COc1ccc(Br)cc1C1N2CC3(C)CN1CC(C)(C2)C3=O (stereo not shown) | -1.31% |
| O=C(O)CCS(=O)(=O)c1ccc(Cl)c(Cl)c1 | -0.0369% |
| COc1ccc(NC(=O)c2cccc(Cl)c2)cc1 | 4.06% |
| COc1ccc(CNC(=O)c2cnc3ccc(S(=O)(=O)N4CCOCC4)cc3c2Cl)cc1 | 9.04% |
| CC1CC(C)CN(C(=O)CSc2nc3ccccc3c3nc4ccccc4n23)C1 (stereo not shown) | 4.33% |
| CS(=O)(=O)c1oc(-c2cccs2)nc1S(=O)(=O)c1ccc(F)cc1 | -1.22% |
| Cc1cc(C=O)c(C)n1-c1cccnc1 | -6.28% |
| Cc1ccccc1C(=O)N1CCN(C)CC1 | -3.05% |
| c1ccc(N2CCN(C3CCCCCCC3)CC2)cc1 | -5.44% |
| CN(C)C(=O)N1CCC(C(=O)NCc2ccc(F)cc2)CC1 | 2.05% |
| COc1ccc(-c2noc(CC(=O)NCc3ccc(Cl)cc3)n2)cc1 | 5.09% |

| Compound | % Inhibition @ 10 uM |
| --- | --- |
| CCC(=O)Nc1cc2nn(-c3ccc(Cl)cc3)nc2cc1C | -7.69% |
| O=c1cc(O)nc(SCc2ccc(Cl)cc2)n1-c1ccccc1 | 9.4% |
| COc1ccc(C2(CNC(=O)c3ccc(OC)cc3OC)CCOCC2)cc1 | 3.15% |
| CC(C)C/N=C1/C=C(O)CC(c2ccco2)C1 (stereo not shown) | 1.82% |
| Cc1ccc(C2CC(C(F)(F)F)n3nc(C(=O)NCc4c(C)nn(C)c4C)c(Cl)c3N2)cc1 (stereo not shown) | -4.67% |
| COc1ccc(NC(=O)CCC2CCCC2)cc1 | 2.64% |
| COc1ccc(/C=C2\SC(N3CCN(C)CC3)=NC2=O)cc1OC | -1.08% |
| CC(C)CNS(=O)(=O)c1ccc(CCC(=O)Nc2cccc(F)c2)cc1 | -0.545% |
| COc1ccc(OC)c(CN2CCSCC2)c1 | 3.8% |
| CCOC(=O)c1c(C)c(C(=O)NCCCN(C)C)c(C)n1CC | 0.0579% |
| CCNc1nc(N2CCOCC2)nc(-n2nnc(C(=O)OCC)c2C)n1 | -0.703% |
| Cc1ccc(C2CC(c3c(O)cc(C)oc3=O)=NCCS2)cc1 (stereo not shown) | 0.774% |
| Clc1ccccc1OCCCCCCN1CCOCC1 | 1.83% |
| Cc1ccc(C(=O)N/C(=C/c2ccc(Cl)cc2)C(=O)O)cc1 | 5.2% and -4.27% |
| O=C1/C(=C/c2ccc3ccccc3c2)Cc2ccccc21 | 6.11% |
| CC1CC(C)CN(c2oc(/C=C/c3cccs3)nc2C#N)C1 (stereo not shown) | -3.49% |
| CCc1ccc(/N=c2\oc(C)cc(O)c2C(C)=O)cc1 | -4.41% |
| CC(C)CC(C(=O)NCCN1CCOCC1)N1Cc2ccccc2C1=O (stereo not shown) | 1.34% |
| Fc1ccc(N2N=C(c3cccs3)CC2c2ccco2)c(F)c1 (stereo not shown) | -2.36% |
| CC1=NN(c2nc(O)cc(-c3ccccc3)n2)C(=O)C1 | 1.04% |
| CCOC(=O)c1c(C)[nH]c(C)c1S(=O)(=O)NCC(=O)Nc1cccc(C)n1 | 18.4% |
